# Source: PMC12136788
# The other results are listed elsewhere or left out.
# T1: UNK ZnF1-6 (called full-length) (human, UniProt Q9C0B0 30-357)
# T1 sequence: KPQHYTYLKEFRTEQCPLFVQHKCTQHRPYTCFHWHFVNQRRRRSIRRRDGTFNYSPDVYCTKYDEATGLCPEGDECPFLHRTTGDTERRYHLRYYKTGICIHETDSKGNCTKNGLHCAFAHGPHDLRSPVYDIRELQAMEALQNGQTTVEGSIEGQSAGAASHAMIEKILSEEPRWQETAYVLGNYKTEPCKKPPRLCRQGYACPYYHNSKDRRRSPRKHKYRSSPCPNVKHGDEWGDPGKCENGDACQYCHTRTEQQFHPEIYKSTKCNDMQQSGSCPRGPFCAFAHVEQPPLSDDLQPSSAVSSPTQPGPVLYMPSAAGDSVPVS
# B1: chr8:103332422:103332528:+|3pUTR|ENSG00000164930|msi1|total|mutant (ssRNA)
# RNA: GGGAGUUCUACAGUCCGACGAUCUUUUUUAACAUUCCGAAUAUUACAUUUUGUAUUAUACAGUACCUUUCUCAGACAUUUUGCCGAAUUCAUUUCGGCAGCUCACCCGGAUUUUGCUGAACAUUAAAAAGUGUGACCGCGAUACAACAGAGGAUUGAGCAUCA
# B2: ENSG00000135454:stop:overlap|stop_codon|ENSG00000135454|stop_codon|NA|stop_codon (ssRNA)
# RNA: GGGAGUUCUACAGUCCGACGAUCAGCGCGUUAGUGGCCCCUACGUGGAACACUAUCUCAUGCCCUUCGGCAAGGUGUGCAGCUAGCAGGCUGAACGGCAGGCCAGAGGACUCCCGCAGGGGGUGUGCCCUCAAUCUGCAGCCUCAACAGAGGAUUGAGCAUCA
# B3: chr7:113918214:113918996:-|CDS|ENSG00000154415|control|control|control (ssRNA)
# RNA: GGGAGUUCUACAGUCCGACGAUCUGAGAAGUUAGUAUAUGUAAGAAUGUCUUUAGAUGACUGGCAGACACAUUAUGACAUUUUAGCAGAAUAUGUUCCUAAUUCAUGUGAUGGUGAAACUGACCAGUUCUCCUUUAAGAUUGUCAACAGAGGAUUGAGCAUCA
# B4: chr11:75562225:75562326:+|5pUTR|ENSG00000149257|msi1|FALSE|unique (ssRNA)
# RNA: GGGAGUUCUACAGUCCGACGAUCGCAGGAGGGGGUGGGGACUGCCAUAUAUAGAUCCCGGGAGCAGGGGAGCGGGCUAAGAGUAGAAUCGUGUCGCGGCUCGAGAGCGAGAGUCACGUCCCGGCGCUAGCCCAGCCCGACCCACAACAGAGGAUUGAGCAUCA
# B5: chr16:33844783:33845086:-|CDS|ENSG00000259680|control|control|control (ssRNA)
# RNA: GGGAGUUCUACAGUCCGACGAUCAGCUGGGUCCGCCAGGCUCCAGGGAAGGGACUGGAGUGGAUUUCAUACAUUAGUGGUGAUAGUGGUUACACAAACUACGCAGACUCUGUGAAGGGCCGAUUCACCAUCUCCAGGGACAACCAACAGAGGAUUGAGCAUCA
# B6: chr9:21239001:21239365:-|three_prime_utr|ENSG00000228083|control|control|control (ssRNA)
# RNA: GGGAGUUCUACAGUCCGACGAUCCAAAAUUUUCAAAUGUUUUCAGGAGUGUAAAGAAGCAUCAUGUAUACCUGUGCAGGCACUAGUCCUUUACAGAUGACCAUGCUGAUGUCUCCUUUCAUCUAUUUAUUUAAAUAUUUAUUUCAACAGAGGAUUGAGCAUCA
# B7: chr5:119149357:119149458:+|CDS|ENSG00000172869|msi1|total|mutant (ssRNA)
# RNA: GGGAGUUCUACAGUCCGACGAUCCUGGGAGAGUACCAAAGUUGUGCCCCUUUCUAAAUUUGUACUAUUACGAAGUGUGGACCCCGUUUCUUCUGCCGAUGGCUCCCCACCUUUUCCUGUUUCUUUAUCGUGGGUCCGGGAUGGCAACAGAGGAUUGAGCAUCA
# B8: chr14:63372511:63372612:-|3pUTR|ENSG00000154001|unk|total|mutant (ssRNA)
# RNA: GGGAGUUCUACAGUCCGACGAUCUGGGGAUGAGGGUGGGAUGGGAAAGGGAUGUAUGGAUGUUAUUGGCAUUUUUAAGUGUUCCGAGUUUUUUGGGGUUUGGGGUGGUUUUUUUUCCUUGUUUUCCUUUUUUCCUUUUAAUUGCAACAGAGGAUUGAGCAUCA
# B9: chr13:45957189:45957298:-|CDS|ENSG00000123200|unk|total|mutant (ssRNA)
# RNA: GGGAGUUCUACAGUCCGACGAUCUGUUUUUGUUUUCUUCAAACCGGGCACCAUAAAACAAGCUUACACGAGUGCUCCAAUGGCCGACAAUGAAUUACUUCGAUUGAGUCUUCGGUUAUUUAAGCGGAAGACUACUUGCCAUGCCAACAGAGGAUUGAGCAUCA
# B10: chr22:38736040:38736148:-|3pUTR|ENSG00000100242|msi1|total|mutant (ssRNA)
# RNA: GGGAGUUCUACAGUCCGACGAUCCCCCAUGCAGAUGAAAAGGACGGGCAGGGUCUCCUGAGCAGCAGGUGGCUCGAGGCGGUCCGCAGGCUCCAGCAGCUCCCUUCUUCCUUCCCUCUGUGCCCGUGGCGUCUGCUUCCCAUCCAACAGAGGAUUGAGCAUCA
# B11: chr1:23091194:23091296:-|CDS|ENSG00000169641|unk|FALSE|unique (ssRNA)
# RNA: GGGAGUUCUACAGUCCGACGAUCCUCCAGAAGGACCCAAAGUAGCCUCACUGUGUCAGAGGUGCUUACCCGUCGGAAUCGGGUAGGAGACACCAUCACUGUCGCAGCCUGGAACCACUCAGCAAGCAUGGUGAGUUCCAGCCUCAACAGAGGAUUGAGCAUCA
# B12: chr1:9614578:9614679:+|3pUTR|ENSG00000188807|msi1|FALSE|unique (ssRNA)
# RNA: GGGAGUUCUACAGUCCGACGAUCUCCAGCUGCCAGCAAUGGUUCCAACUCGGAGGCAGCGCCUCUUGGUCCCCAUUUCUGUAUAGCAGGCGUGUGUGUGUGUGUCGAGGUUUUUUAUUUUUUGCUUAAUCAAACUCCAUUCCCCAACAGAGGAUUGAGCAUCA
# B13: chr9:111714444:111714623:-|CDS|ENSG00000165181|control|control|control (ssRNA)
# RNA: GGGAGUUCUACAGUCCGACGAUCAGCAUUUUAGGCCCCUAUUUGGGUGACAUUUGGAGACAGCUGGAGAUUGUACAGUUUAUUAGGGGGAAAAAGCCUGAAACCAACUACAAGAUACAAGAAUUGCAAUGUCAGAUACUAAGUCAACAGAGGAUUGAGCAUCA
# B14: chr19:41261474:41261596:+|3pUTR|ENSG00000167601|msi1|FALSE|unique (ssRNA)
# RNA: GGGAGUUCUACAGUCCGACGAUCUCUAAAGGUCCACAGGUCUAGACUAUUAGGUGCAAUUUCAAGGUUCUAACCCUAUACUGUAGUAUUCUUUGGGGUGCCCCUCUCCUUCUUAGCUAUCAUUGCUUCCUCCUCCCCAACUGUCAACAGAGGAUUGAGCAUCA
# B15: chr6:1612588:1612689:+|3pUTR|ENSG00000054598|msi1|total|mutant (ssRNA)
# RNA: GGGAGUUCUACAGUCCGACGAUCUUUAUUCAUGGACUUGUUUUAAAAUGUAAAUUGCAACACCGUAAUUUAUUUUUAAUUUGCCGUUGGAUGUCGUGGACCAAACGCCAGAAAGUGUUCCCAAAACCUGACGUUAAAUUGCCUCAACAGAGGAUUGAGCAUCA
# B16: chr1:198253062:198253183:+|CDS|ENSG00000151414|unk|total|mutant (ssRNA)
# RNA: GGGAGUUCUACAGUCCGACGAUCAUGGGCUAUAAUACAUCCGCCAACUUUCGAACCGAAAAGAAAAUUGGUCGCGGACAAUUCCGUGAAGUUUACCGAGCAGCCUGUCUCUUGGAUGGAGUACCAGCCGCUUUAAAAAAAGUGCAACAGAGGAUUGAGCAUCA
# B17: chr9:130903550:130903651:-|3pUTR|ENSG00000130720|msi1|total|mutant (ssRNA)
# RNA: GGGAGUUCUACAGUCCGACGAUCAAAUACCCGGCAUUAUGGGGACAGAGAGCAGGGGGCAGACAGCACCCCUGGAGUCCUCCCCGCAGAUCGUGGGGAACGUCAGGUCUCUCUGAGGUCAGGUCUGAGGCCAGUAUCCUCCAGCAACAGAGGAUUGAGCAUCA
# B18: chr12:50222030:50222167:-|CDS|ENSG00000050405|unk|FALSE|bound_elsewhere (ssRNA)
# RNA: GGGAGUUCUACAGUCCGACGAUCAUCCAGGCAUGAAGUAGAAAAAUCAGAAAUCAGUGAAAACACAGAUGCUUCGGGCAAAAUAGAGAAAUAUAAUGUUCCGCUGAACAGGCUUAAGAUGAUGUUUGAGAAAGGUGAACCAACCAACAGAGGAUUGAGCAUCA
# B19: chr2:32415991:32416109:+|CDS|ENSG00000115760|unk|FALSE|unique (ssRNA)
# RNA: GGGAGUUCUACAGUCCGACGAUCUGACAUUUCUACUCUUGGACACCUGGUAAUAACCACUCAGGGAGGAUAUGUAAAAAUACUAGAUCUUUCAAACUUUGAAAUUUUGGCCAAAGUGGAGCCUCCCAAAAAGGAGGGCACUGACAACAGAGGAUUGAGCAUCA
# B20: chr14:103559255:103559356:-|3pUTR|ENSG00000166170|msi1|total|mutant (ssRNA)
# RNA: GGGAGUUCUACAGUCCGACGAUCGCUUAACGGGGUGGGGUUUUUUUGUUUGUUCAGACAGUCUGUUCUUUUGUAAACAUUUUCCGUUGGAAAAACAGCAUCUGCAUUUUCCCCAUCCUCUACGUUUCCGAGAGGAAUCUUGUUCAACAGAGGAUUGAGCAUCA
# B21: ENSG00000205339:stop:overlap|stop_codon|ENSG00000205339|stop_codon|NA|stop_codon (ssRNA)
# RNA: GGGAGUUCUACAGUCCGACGAUCGGCUCGCCACAACCUCCGCCUCCCGGAUUCGGGCAAUUCUCCUGCCUCAGCCUCUUGAGUAGCUGGGAUUACAGGUGUUAUCUAUCUGAAAAAUAUGAUAACACAGUAUUGGCCUGAUCGCAACAGAGGAUUGAGCAUCA
# B22: chr7:139284418:139284519:+|CDS|ENSG00000157741|unk|FALSE|bound_elsewhere (ssRNA)
# RNA: GGGAGUUCUACAGUCCGACGAUCGCAAUGAAUGUACCUGCCAGCAGAGGUAGCAACCUUAACUCAAGCGGAGCUAAUAGGACUAGUCUGUCUGGGGGAACAGGAAGUGGAACACAGGGUGCUACCAAACCAUUGUCUACUCCACAACAGAGGAUUGAGCAUCA
# Biological target: T1, UNK ZnF1-6 (called full-length)
# Test: nsRBNS (natural sequence RNA bind-n-seq); RBNS binding buffer (assumed for nsRBNS): 25 mM Tris pH 7.5, 150 mM KCl, 3 mM MgCl2, 0.01% Triton X-100, 500 ug/ml BSA, 20 U/ml SUPERase-In, 4 C; UNK is unkempt and MSI1 is Musashi-1; names of the RNAs are library labels; protein concentration not given here; high values mean tight binding
row,Binder,binding signal
1,B1,0.422 enrichment R
2,B2,1.21 enrichment R
3,B3,1.02 enrichment R
4,B4,1.28 enrichment R
5,B5,0.725 enrichment R
6,B6,0.917 enrichment R
7,B7,0.967 enrichment R
8,B8,1.7 enrichment R
9,B9,0.325 enrichment R
10,B10,1.02 enrichment R
11,B11,0.389 enrichment R
12,B12,0.814 enrichment R
13,B13,0.757 enrichment R
14,B14,1.44 enrichment R
15,B15,0.325 enrichment R
16,B16,0.411 enrichment R
17,B17,0.72 enrichment R
18,B18,1.1 enrichment R
19,B19,0.582 enrichment R
20,B20,0.471 enrichment R
21,B21,0.6 enrichment R
22,B22,0.688 enrichment R
